# According to article PMC12136788:
# The list shows a part of the results.
# B1: 117886101_117886221_2421_CDS_ENSMUSG00000033295_ENSMUST00000150096|mouse|control|control (ssRNA)
# RNA: GGGAGUUCUACAGUCCGACGAUCGCUGUGCGCUGUUCCCACACCAUCCUCCAGAAAUCGCCCAUGGUCUCGGGCAGCGGACCCUGUGUGGCGAUGUAGGCAUUCUGCUUUCGGUAGCCAUCAAUGUAGUUGGCAUUGAUGUAGCAACAGAGGAUUGAGCAUCA
# B2: chr3:97503841:97503842:+_ENSG00000113966_ENST00000463745|hu_mus|motif|central (ssRNA)
# RNA: GGGAGUUCUACAGUCCGACGAUCAUCUGGGUGAUUCAGAAGGGUAUCAAGCUCUUCUUUGGCCACAACCAUUCUUAACUUAUCACGGCUAUCAAUGACAAAAAUAAUGGCUUGUCCAUCUUUAUAAUAGUGUUCCCAGAGAUUCAACAGAGGAUUGAGCAUCA
# B3: chr17:60770872:60770873:+_ENSG00000011028_ENST00000303375|hu_hu|FALSE|FALSE (ssRNA)
# RNA: GGGAGUUCUACAGUCCGACGAUCUUGCUUUUCUUUUUUCCUUUUUUUUUAAAAACAAUAAUGGCACAUUUAAAAAAUCAACUACAGAGAAAGGGCCAUGUCUUCGAGUCCAUGUUCACAUUGUCCCACGCUGUCGCACCAGGACAACAGAGGAUUGAGCAUCA
# B4: chr2:48034816:48034817:-_ENSG00000138081_ENST00000403359|hu_hu|motif|central (ssRNA)
# RNA: GGGAGUUCUACAGUCCGACGAUCAUAUUUCUCAAUCUGAAUACAUGUUAAAAAAAAAAAAUCAAAAGGAACGCAGAAGUGCGGGCUCACAUUUUUACCAUAUUACAAAAGCAAUUGGUACCCAUGUCCAUAAAGGCAGCAACACAACAGAGGAUUGAGCAUCA
# B5: 76784763_76784883_3969_CDS_ENSG00000156650_ENST00000287239|human|control|control (ssRNA)
# RNA: GGGAGUUCUACAGUCCGACGAUCCACUUCAAUCUCACAGGUAGGCUCCAGCUGUGGCAUUGGCCUCUCUUCAUCUGAGUUGUCAAAGGGCUCAUUCAGUACUUCUGUCGUCUCUGAAAUGGUCUCUGUUGUUACACUGCUGUUCAACAGAGGAUUGAGCAUCA
# B6: chr7:156759685:156759686:+_ENSG00000146909_ENST00000275820|hu_hu|FALSE|FALSE (ssRNA)
# RNA: GGGAGUUCUACAGUCCGACGAUCCACCAGAUGAACCAAAUUAGAGAAAUUCGUAGCUGGCAAGUUUUCCAAGUCCCGAAAUUUGUCCCAUAUGCUGAACUGGAAAGUCAUCUGAAAUCUCCUUUCAUAUUCACAGAAUUUGCUCAACAGAGGAUUGAGCAUCA
# B7: chr6:136599331:136599332:-_ENSG00000029363_ENST00000527536|hu_mus|FALSE|FALSE (ssRNA)
# RNA: GGGAGUUCUACAGUCCGACGAUCGGGGGCAUCUGAGCAUGAUGAACUCUGACUGGGUGGUGUAGCAAUAGGUGAAGGACUAUGAGGUGACCUUGGACUAUUAUCAUAAGCUGAAAGGCCAGGCCAAAUAUCACCAGAAGUAGCCAACAGAGGAUUGAGCAUCA
# B8: chr4:140556289:140556290:+_ENSMUSG00000036622_ENSMUST00000037055|mus_mus|mus_mus_mus_hu_False|1_88 (ssRNA)
# RNA: GGGAGUUCUACAGUCCGACGAUCGAUGGAGCUCACCAGGCCCCCUUUGGCUGUGCAGAACCCUGUGCGGGUCACCACUGCCAGGACGUGCGGUCCCACAUAGGCCCGGGCCUGCAAGAUGAGGGUCCCGCAGAAGAGGGUGUGCAACAGAGGAUUGAGCAUCA
# B9: 32234225_32234345_1156_CDS_ENSMUSG00000040451_ENSMUST00000099514|mouse|control|control (ssRNA)
# RNA: GGGAGUUCUACAGUCCGACGAUCCAGGAAAGUCUUGCCCCACUCCAUGGGAUACUGGGAGCGCUCCGGUUCUGGCAUGGGGAUCUUGAUCAUCUCUUUCCUAAACCCAUUUGGCAUUCCGUUGGGUUUAGUCUUGAUGCUGAACAACAGAGGAUUGAGCAUCA
# B10: chr5:38528984:38528985:-_ENSMUSG00000029126_ENSMUST00000031009|mus_hu|FALSE|FALSE (ssRNA)
# RNA: GGGAGUUCUACAGUCCGACGAUCCAAGAUUCAAACUGGAACAAUUUUCUUACAAAGAUUGUGAGUUGAAAUUUGUCAUUUUGUUUGCACGGUGCCACACCAGUCCCCCACCCCCACCCCACAGCCUUUCCUGCCUGUUUCCCACAACAGAGGAUUGAGCAUCA
# B11: 171509719_171509839_3416_CDS_ENSG00000117523_ENST00000367742|human|control|control (ssRNA)
# RNA: GGGAGUUCUACAGUCCGACGAUCAACUGACUGUGGCUGAAUUGGUGCUGGUGGCUGAGGUGGUGGUGGGGGAGGAGGAAGAUCCUUCUUUUCCGUCUUUUCAGGCUUUACAACUACUUUUUCAGUGACCUUUUCGGCCUUUUCCAACAGAGGAUUGAGCAUCA
# B12: chr18:56819859:56819860:+_ENSG00000166562_ENST00000588875|hu_mus|hu_hu_hu_mus_True|18_68 (ssRNA)
# RNA: GGGAGUUCUACAGUCCGACGAUCAACCUUGAUUACUCUGUGAACUAUCGGAAUGUCUCUUCCUUCAACUUUAAAAACAACUAUUUCACCAGCUCUGAUGGGGUCCUCCCGGAAAUUUGUGAGGAACAGCAGAUCUCCUCUGUGCAACAGAGGAUUGAGCAUCA
# B13: 27445870_27446515_996_CDS_ENSG00000084774_ENST00000264705|human|control|control (ssRNA)
# RNA: GGGAGUUCUACAGUCCGACGAUCAGCAAACCCAUGGUUCUGGGAUGUCAGAAAGCAGCGCCCAGAGCCCACCAACAAGCAGGGCUGGUUAUGGCCUCGGUUCCCAUAUCUCAUCUUGUAAGUCUUGGCCCCAAUGGCUAAGGCCAACAGAGGAUUGAGCAUCA
# B14: chr8:104447970:104447971:+_ENSG00000164934_ENST00000297579|hu_hu|hu_hu_hu_mus_False|18_88 (ssRNA)
# RNA: GGGAGUUCUACAGUCCGACGAUCAUACACUUCCCUGCUUCGGCUCUUGUCUACAGGAAAGAUUCUAAUAGACUUAUCAAAGCUGGCAGACACAAAUUCCUUCCCAGUGGGAGAGUAAUCCACAUCAAGUACUGCAGACACGUGCAACAGAGGAUUGAGCAUCA
# B15: chr10:106027121:106027122:+_ENSG00000148834_ENST00000369713|hu_hu|motif|central (ssRNA)
# RNA: GGGAGUUCUACAGUCCGACGAUCGGCCUCAGGGCUGUUCUGUAAGUAGAGCUCUAGGAAACCUUGCCAGUCUUUCUCACGGGUAAGCAGGGCUGAGACUGUGGGAUCUUCCUUCAUGGCUGCCAUCCACAGUUUCAGUUUUGGCAACAGAGGAUUGAGCAUCA
# B16: chr11:97022710:97022711:-_ENSMUSG00000001440_ENSMUST00000001479|mus_mus|FALSE|FALSE (ssRNA)
# RNA: GGGAGUUCUACAGUCCGACGAUCCACUUUAAAAAAUUACUAAAGCGUGCGAGCAGGGUCACCAUCUGACACCAUUUUACUAAUCUUCAACUUCAGUGGAAAAAUAGAGCCUUCUUCCUGGUGCCAUUUUCAUCACAACAGUUGCAACAGAGGAUUGAGCAUCA
# B17: chr2:35971668:35971669:-_ENSMUSG00000026889_ENSMUST00000028251|mus_hu|motif|central (ssRNA)
# RNA: GGGAGUUCUACAGUCCGACGAUCGAAUCAGUACAAAUAAUAAACAGUGCUUUAAAUACAAAUAAAUAGCUCUGGUUUCGGAAGGAAACAACUCUAUAUAUAAUUCUAAGUUUUUUCUAAGUUCCUAUUAAAAAUAGAAGACUACAACAGAGGAUUGAGCAUCA
# B18: chr9:74904954:74904955:+_ENSMUSG00000007656_ENSMUST00000169492|mus_mus|FALSE|FALSE (ssRNA)
# RNA: GGGAGUUCUACAGUCCGACGAUCUCAAAAGGAAGAUACAGAAGAAAUCAAUACAACAGAGGUCCUGUUAAAUAAGAGUAACAUACAAAGCUGUAAUCAUGAGAAAGUAAAGAAAGCCAGAGCAUUAAAGCUGUAAAACUUGCUCAACAGAGGAUUGAGCAUCA
# B19: chr3:150289777:150289778:+_ENSG00000144895_ENST00000460851|hu_mus|motif|central (ssRNA)
# RNA: GGGAGUUCUACAGUCCGACGAUCUUUCGCAGGCAUAAAACCAUAAACAGCGCAAAACUCAGUAGAACUGGAAUUCCAAACGGCAUCAUAAAUUGGGCCAUUUUUUGGUAAUUGUACCACAGCACUUUCUCCAUUUGUUGCAAUCAACAGAGGAUUGAGCAUCA
# B20: chr13:48919227:48919228:+_ENSG00000139687_ENST00000267163|hu_hu|FALSE|FALSE (ssRNA)
# RNA: GGGAGUUCUACAGUCCGACGAUCUUUGGUACUGGUAUCAAUUUCUUUUAGUAAGUUAAAGAAUUUAUGGACACUGAUUUCUAUGUUUUUCUGUAGCUCAGUAAAAGUGAACGACAUCUCAUCUAGGUCAACUGCUGCAAUAAACAACAGAGGAUUGAGCAUCA
# B21: chr3:176743309:176743310:-_ENSG00000177565_ENST00000430069|hu_mus|motif|central (ssRNA)
# RNA: GGGAGUUCUACAGUCCGACGAUCUGUACACAUUCAUAGUCGGUCCAUGGCUUCCAACUAGUAACGCUAUUUCCGAAGGUCGGAGACACAAACUGAACCGUCCGAAGCACUGGCUCCAACUUUGUCUCCUGCUGCGUUCCAGCACAACAGAGGAUUGAGCAUCA
# B22: chr2:78758850:78758851:+_ENSMUSG00000027011_ENSMUST00000028398|mus_hu|FALSE|FALSE (ssRNA)
# RNA: GGGAGUUCUACAGUCCGACGAUCGUCCAGACAGAUGACUCCCUGACUGUUGAUGUUGCAGUGAUAGAUUCUGGUGCGGAAAGUAACCUUUGGUGGCUUAAAUGGAUAAUCUGAUGAAAAUGUGAUAUCCAGAAAAAACACACCCAACAGAGGAUUGAGCAUCA
# Biological target: T1, UNK ZnF1-3 (human, UniProt Q9C0B0 31-174)
# T1 sequence: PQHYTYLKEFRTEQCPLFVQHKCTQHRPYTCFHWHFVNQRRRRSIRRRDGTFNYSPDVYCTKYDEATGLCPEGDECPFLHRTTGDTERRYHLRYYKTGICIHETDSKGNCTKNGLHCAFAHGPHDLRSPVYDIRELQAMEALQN
# Assay: nsRBNS (natural sequence RNA bind-n-seq); RBNS binding buffer (assumed for nsRBNS): 25 mM Tris pH 7.5, 150 mM KCl, 3 mM MgCl2, 0.01% Triton X-100, 500 ug/ml BSA, 20 U/ml SUPERase-In, 4 C; UNK is unkempt and MSI1 is Musashi-1; names of the RNAs are library labels; protein concentration not given here; high values mean tight binding
row,Binder,binding signal [enrichment R]
1,B1,0.579
2,B2,0.999
3,B3,1.12
4,B4,1.83
5,B5,0.71
6,B6,1.55
7,B7,1.74
8,B8,1.15
9,B9,0.407
10,B10,0.872
11,B11,0.514
12,B12,0.893
13,B13,1.09
14,B14,0.83
15,B15,0.652
16,B16,1.32
17,B17,1.29
18,B18,2.34
19,B19,1.08
20,B20,0.697
21,B21,0.839
22,B22,1.2
